This is one part of the list. Single values of this set are uncertain.
System: U2OS
Experiment: Cell Painting induction (percent of morphological features significantly changed vs DMSO); higher = stronger morphological change
Settings: 10 µM, 20 h
Protocol: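 Cell Painting assay in U2OS cells: compounds at 10 µM for 20 h, six dyes, 579 robust CellProfiler features as Z-scores vs DMSO median (MAD). Induction is the % of significantly changed features (active if ≥5%); relative cell count is in % of DMSO. The primary run holds DCM compounds preselected for induction ≥10%; the confirmation repeat defines active compounds (370 of 549). Replicate agreement is low, attributed to precipitation.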

[1] = run: primary screen (compounds selected for induction >=10%)
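Also: stains mark DNA, RNA and nucleoli, ER, actin, Golgi, plasma membrane and mitochondria, read by high-content imaging, with DMSO controls at matching solvent concentration.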

Compound	Cell Painting induction (run: confirmation repeat)	Cell Painting induction [1] [%]
Cc1ccc(N2CCN(C(=O)C3CCN(S(=O)(=O)c4cccc5nsnc45)CC3)CC2C)cc1 (stereo not given)	inactive: 0%	23.3
Cc1nn(C(C)C(=O)NCCCN(Cc2ccccc2)C(C)C)c(=O)c2c1sc1ccccc12 (stereo not given)	active: 46.8%	56.1
Cc1cccc(N2CCN(c3ccc4cc(S(=O)(=O)N5CCCCC5)ccc4n3)CC2C)c1 (stereo not given)	active: 11.4%	31.1
Cc1ccc2cc(CN(c3cccc(C)c3C)S(=O)(=O)c3ccccc3)c(O)nc2c1	active: 22.5%	33.9
COc1ccccc1Nc1nn2c(=O)c3ccc(C(=O)N4CCCCC4)cc3nc2s1	active: 35.9%	22.1
COc1ccc(NC(=O)CCc2nc(-c3ccc(C)cc3)no2)cc1Cl	active: 28.8%	29.4
COc1ccc(CCn2c(=O)[nH]c3cc(C(=O)N4CCN(c5ccccc5)CC4)ccc3c2=O)cc1OC	active: 21.2%	16.2
CCOC(=O)N1CCC(N2Cc3cccc(C(=O)Nc4ccc(S(=O)(=O)N(CC)CC)cc4)c3C2=O)CC1	inactive: 2.1%	24.2
CCOc1ccc(CCNC(=O)c2ccc3c(=O)n4c(nc3c2)CCCCC4)cc1	active: 36.8%	42.5
CCOc1c(Br)cc(C2CC(=O)Nc3cc(OC)c(OC)cc32)cc1OC (stereo not given)	active: 8.1%	15

Reference: the supplement of paper PMC11181314
